# In all, about 110,000 compounds went through this assay and about 230 (0.21%) showed an effect of 50% or more. The list shows a part of the results.
# Biological target: DPAP1 (Plasmodium falciparum, UniProt Q8IIJ9)
# Assay: primary screen, percent inhibition; read by cleavage of a fluorogenic dipeptide substrate; higher = more effect of the substance
# Parameters: species or system P. falciparum D10 trophozoite lysates; single well
# 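Also: 30 min substrate incubation versus DMSO and 10 µM JCP410 controls.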
# DPAP1, sequence (Q8IIJ9 whole entry, looked up): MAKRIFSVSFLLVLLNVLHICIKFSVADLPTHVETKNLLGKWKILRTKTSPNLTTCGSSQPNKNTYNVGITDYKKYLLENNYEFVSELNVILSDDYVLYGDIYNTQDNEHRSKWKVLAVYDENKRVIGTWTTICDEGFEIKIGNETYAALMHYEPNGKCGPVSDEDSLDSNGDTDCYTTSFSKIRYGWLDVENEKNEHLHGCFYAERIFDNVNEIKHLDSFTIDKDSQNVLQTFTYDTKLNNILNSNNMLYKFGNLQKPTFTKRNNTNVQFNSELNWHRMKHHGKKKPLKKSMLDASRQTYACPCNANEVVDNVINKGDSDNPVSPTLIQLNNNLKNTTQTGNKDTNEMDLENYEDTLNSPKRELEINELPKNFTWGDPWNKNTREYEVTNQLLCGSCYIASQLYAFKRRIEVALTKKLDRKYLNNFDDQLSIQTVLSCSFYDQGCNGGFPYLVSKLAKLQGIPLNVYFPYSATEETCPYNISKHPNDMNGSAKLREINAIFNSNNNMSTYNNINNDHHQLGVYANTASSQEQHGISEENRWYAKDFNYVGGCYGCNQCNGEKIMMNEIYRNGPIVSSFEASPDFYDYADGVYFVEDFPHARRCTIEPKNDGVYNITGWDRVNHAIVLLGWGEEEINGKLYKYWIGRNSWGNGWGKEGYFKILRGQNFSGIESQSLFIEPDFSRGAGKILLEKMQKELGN
row,SMILES,% Inhibition @ 10 uM [%]
1,O=C(O)c1cnc2cc3c(cc2c1O)OCCO3,-1.2
2,CCCCSc1nc2c3cc(OC)ccc3n(C)c2c(=O)n1CCO,-1.37
3,Cc1ccccc1N1CCN(C(=O)c2ccccc2NC(=O)C2CC=CCC2C(=O)O)CC1 (stereo not drawn),-1.61
4,CC(C)CCNC(=O)c1ccc(-n2cnc3cccnc32)cc1,-2.92
5,O=C(Nc1nc2c(Cl)cccc2s1)c1ccccc1,-2.32
6,CC(C(=O)NCc1ccc(F)cc1)n1ccc2cc(S(=O)(=O)N3CCCC3)ccc21 (stereo not drawn),-4.38
7,O=C(NCc1ccccc1)C1CC(c2ccccc2F)=NO1 (stereo not drawn),-3.94
8,COc1ccc(C(=O)Nc2nc(-c3ccccc3)cs2)cc1OC,24
9,Cc1cc(N)nn1Cc1cccc2ccccc12,-5.53
10,Cc1cccc(OCC(=O)Nc2cccc(Cl)c2C)c1,-7.28
11,CCOc1ccccc1C(=O)NCc1ccc(C)cc1,-5.6
12,O=C(NCCN1CCOCC1)c1cccc(Br)c1,3.48
13,COc1ccc(C2CC3=Nc4ccccc4NC(c4ccc(O)cc4)C3=C(O)C2)cc1 (stereo not drawn),5.59
14,CCCNC(=O)c1c(CC)c(-c2ccccc2)nc2ccccc12,-2.26
15,Clc1ccc(CNCCC2=CCCCC2)cc1,0.343
16,C=CCOc1ccc(/C=C2\C(=N)N3N=C(S(C)(=O)=O)SC3=NC2=O)cc1OC,5.1
17,CCOC(=O)N1CCC(N2CCN(C)CC2)CC1,0.472
18,O=C(CCC1CCCCC1)Nc1ccc(F)cc1,-4.01
19,CCOC(=O)N1CCN(C(=O)CNS(=O)(=O)c2ccccc2)CC1,-5.51
20,C=CCNC(=O)CN(c1ccccc1CC)S(=O)(=O)c1ccc(C)cc1,3.17
21,CC(=O)c1ccc2c(c1)c1cc(Cl)ccc1n2C,-3.04
22,COc1cc(/C=C/C(=O)NCCSc2c(C)[nH]c3ccccc23)cc(OC)c1OC,1.23
23,CCc1ccc(C(=O)NC2=NC(=O)CC(c3ccc(OC)cc3)N2)cc1 (stereo not drawn),1.37
24,O=C(c1ccccc1F)N1CCN(c2ccc(Cl)cc2)CC1,-6.57
25,O=c1c(N2CCN(Cc3ccccc3)CC2)csc2ccccc12,2.14
26,Fc1cccc(CN2CCN(c3cccc(Cl)c3)CC2)c1,-1.92
27,Cc1nnc2sc(CCc3ccccc3)nn12,0.635
28,N#Cc1c(SCCc2ccccc2)nc(N2CCOCC2)c2c1CCCC2,2.11
29,CCC(C)NC(=O)C1CCCN(S(C)(=O)=O)C1 (stereo not drawn),0.514
30,OC(CNC1CCNCC1)c1ccc(Cl)c(Cl)c1 (stereo not drawn),1.89
